Laboratory results taken from PubChem BioAssay AID686979 (National Center for Advancing Translational Sciences (NCATS), 2013).
Where “and” joins values, the source holds several entries; their conditions need not be identical. Identical values can stand only once. Out of some 420,000 compounds screened, about 50,000 (12%) were called active. This list was built around the results that the source calls inconclusive (neither active nor inactive); the mix of calls is not that of the screen. The call rests on the fitted dose curve; in most records, active means well fitted inhibition curve with a large enough effect; inconclusive means small, poorly fitted or top-dose-only effect; inactive means flat fitted curve, though single readings scatter. Potencies of inconclusive entries are doubtful fits and often do not repeat. Some structures have more than one record in an assay (separate samples or runs), and their calls can disagree.
On the % scale 0 is the no-effect control and ±100 the full control effect; potency means the concentration at half of the fitted maximal effect; tags describe the fitted curve by direction and shape.

Assay: qHTS for Inhibitors of human tyrosyl-DNA phosphodiesterase 1 (TDP1): qHTS in cells in presence of CPT; further: nearly all actives have a fitted effect of over 55% in size
Settings: chicken DT40 Tdp1-/-;hTDP1 cells + 20 nM CPT, ATP luminescence, 48 h; activity change, negative = growth inhibition: at 46.2 µM (top of the series) unless noted
Outline: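 Chicken DT40 Tdp1-/- cells complemented with human TDP1, 400 cells/well, exposed to compounds plus 20 nM camptothecin for at least 48 h at 37 C; viability read as ATP content by CellTiter-Glo luminescence.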
For `O=C(c1cccc(Cl)c1)C1CCCN(Cc2ccon2)C1` (centres undefined), the Potency was inconclusive: 18.4 µM [inhibitor, single point]. In the case of `CC(C)CN1Cc2cc(-c3ccccc3)ccc2-n2nncc2C1`, the Potency is reported as inconclusive: 29.1 µM [inhibitor, single point]. For `O=C1NC(=O)C(CCc2ccncc2)(Cc2ccc3c(c2)OCO3)C(=O)N1CCc1ccccc1` (centres undefined), the Potency was inconclusive: 16.4 µM [inhibitor, single point]. For `CCCS(=O)(=O)N1CCCC(C(=O)N2CCC3(CC2)OCCO3)C1` (centres undefined), the Potency was “inactive”. For `C[C@H](NC(=O)N1C[C@H]2C[C@@H](C1)c1cccc(=O)n1C2)C(=O)Nc1ccccc1F`, the Potency was “inactive”. For `CS(=O)(=O)OCC(O)C(O)COS(C)(=O)=O` (centres undefined), the Potency was active: 13.3 µM. With `O=C(/C=C/c1ccccc1)C1C(=O)c2ccccc2C1=O` the Potency was active: 3.66 µM. In the case of `CCCn1c(C(=O)c2ccc(OC)cc2)nc2ccccc21`, the Potency is reported as inconclusive: 29.1 µM [inhibitor, single point]. With `CCOC(=O)C1(c2ccccc2)CCN(CCC(=O)Nc2ccccc2OC)CC1` the Potency was active: 20.6 µM. For `Cc1ccc(CN2Cc3ccc(Br)cc3-n3nncc3C2)cc1`, the Potency was inconclusive: 29.1 µM [inhibitor, single point]. With `CN1C2c3ccccc3C3C4c5ccccc5C(C31)C(C2[N+](=O)[O-])N4C` (centres undefined) the Potency was “inactive”. For `COC(=O)[C@]1(C)C[C@H]1[C@H](NP(=O)(c1ccccc1)c1ccccc1)c1ccccc1`, the Potency was inconclusive: 29.1 µM [inhibitor, single point]. With `C[C@@H]1COc2cccc(N3CCN(C)CC3)c2S(=O)(=O)N1` the Potency was “inactive”. With `CCOP(=O)(OCC)C(O)c1ccc(N(C)C)cc1` (centres undefined) the Potency was “inactive”. In the case of `COc1ccc(C2SCC(=O)Nc3c2c(C)nn3-c2ccccc2)cc1OC` (centres undefined), the Potency is reported as “inactive”. With `CCCCCCn1c(O)c(C=Nc2ccccc2N2CCOCC2)c(=O)[nH]c1=S` the Potency was inconclusive: 29.1 µM [inhibitor, single point]. With `OC1(c2cccnc2)CC2CCC(C1)N2Cc1nnnn1Cc1ccccc1` (centres undefined) the Potency was inconclusive: 9.2 µM [inhibitor, partial curve]. In the case of `COC(COC(N)=O)C1=C(N2CC2)C(=O)C(C)=C(N2CC2)C1=O` (centres undefined), the Potency is reported as active: 0.164 µM. In the case of `O=C1NC(=O)N(Cc2ccccc2Cl)C(=O)/C1=C/c1cccs1`, the Potency is reported as active: 6.51 µM. In the case of `COC(=O)C1=C(N)Oc2c(c(=O)oc3ccccc23)[C@]12C(=O)N(C)c1ccccc12`, the Potency is reported as inconclusive: 29.1 µM [inhibitor, single point]. For `Brc1ccccc1CNCCc1ccc2c(c1)OCO2`, the activity change, negative = growth inhibition was inconclusive: -31.7% [inhibitor]. For `O=P(Oc1ccccc1)(Oc1ccccc1)N1CCN(c2ccc(F)cc2)CC1`, the Potency was inconclusive: 29.1 µM [inhibitor, single point]. With `C[C@]12CCC3C(CC[C@H]4C[C@@H](O)CC[C@]34C)C1C[C@@H](N)[C@@H]2O` (some centres undefined) the Potency was “inactive”. In the case of `C=C1C(O)[C@@H]2O[C@]3(CC[C@H](/C=C/C(C)[C@@H]4CC(C)=CC5(O[C@H](C[C@@](C)(O)C(=O)O)CCC5O)O4)O3)CC[C@H]2O[C@@H]1C(O)CC(C)[C@H]1OC2(CCCCO2)CCC1C` (some centres undefined), the Potency is reported as active: 0.164 µM. In the case of `COc1ccc([N+](=O)[O-])cc1N=Cc1c(O)n(CCc2ccccc2)c(=O)n(C(C)C)c1=O`, the Potency is reported as inconclusive: 29.1 µM [inhibitor, single point]. In the case of `CN(C)C(=O)Oc1ccc2c(=O)c(Oc3ccccc3Br)coc2c1`, the Potency is reported as “inactive”. In the case of `COc1ccc(/C=N\NC(=O)c2cccc(F)c2)cc1COc1ccccc1`, the Potency is reported as active: 0.82 µM. For `N#Cc1ccc(C(=O)N2CCN(c3nc4ccc(F)cc4s3)CC2)cc1`, the Potency was active: 2.31 µM. In the case of `O=C(Nc1ccccc1-c1ccc(Cl)cc1)c1cccnc1Cl`, the Potency is reported as inconclusive: 43.3 µM [inhibitor, single point]. With `CCN1CCN(C(=O)Cc2coc3cc(C)cc(C)c23)CC1` the Potency was “inactive”. With `S=C(NCCc1ccccc1)NCCc1cnc[nH]1` the Potency was “inactive”. For `O[C@@H]1CCCN2CCc3c([nH]c4ccccc34)[C@H]12`, the Potency was active: 14.6 µM. With `Cc1cccc(N2CCN(CCc3ccccc3)CC2)c1C` the Potency was inconclusive: 29.1 µM [inhibitor, single point]. With `CC(C)(C)c1ccc(CSc2cnn(C(C)(C)C)c(=O)c2Cl)cc1` the Potency was active: 0.164 µM. For `O=C(NCc1ccccc1)c1cccn(Cc2cccc(Cl)c2)c1=O`, the Potency was inconclusive: 29.1 µM [inhibitor, single point]. With `COC(=O)c1cccc(NC(=O)c2ccc(S(=O)(=O)N(C)c3ccccc3OC)cc2)c1` the Potency was active: 16.4 µM. In the case of `COc1ccccc1C(=O)N[C@@H]1c2ccccc2C2(CCN(Cc3nc(C(C)C)cs3)CC2)[C@H]1O`, the Potency is reported as active: 2.06 µM. With `CC(C)(c1ccc(OC[C@@H]2CO2)cc1)c1ccc(OC[C@H]2CO2)cc1` the Potency was active: 10.6 µM. With `Nc1ccc(C2(c3ccc(N)cc3)CN3CCC2CC3)cc1` the Potency was active: 18.4 µM. For `COc1ccc(NC2=NC(C)(C)CS2)cc1`, the Potency was “inactive”. In the case of `O=C1NCN(c2ccccc2)C12CCN(C(c1ccnc3ccccc13)c1nnnn1C1CCCC1)CC2` (centres undefined), the Potency is reported as inconclusive: 23.1 µM [inhibitor, single point]. With `Nc1ccc(CCN2CCN(c3cccc(C(F)(F)F)c3)CC2)cc1` the Potency was inconclusive: 29.1 µM [inhibitor, single point]. With `COc1ccc(C(C)=O)cc1CC(C(=O)c1ccccc1)N(C)C` (centres undefined) the Potency was inconclusive: 29.1 µM [inhibitor, single point]. For `CC(C)NCC(O)c1ccccc1Cl` (centres undefined), the Potency was “inactive”. In the case of `Cn1c(O)c(C(c2ccncc2)c2c(O)n(C)c(=S)n(C)c2=O)c(=O)n(C)c1=S`, the Potency is reported as “inactive”. For `C[C@]12CC[C@H](OC(=O)CCC(=O)O)CC1=CCC1C2CC[C@@]2(C)C1CC[C@@H]2OC(=O)CCC(=O)O` (some centres undefined), the Potency was “inactive”. With `CC(C)c1ccc(NC(=O)c2ccc3c(c2)CCN3S(=O)(=O)c2ccccc2)cc1` the Potency was active: 4.61 µM. For `CCSc1cc(C2C(C#N)=C(N)Oc3n[nH]c(C)c32)c(C)o1` (centres undefined), the Potency was inconclusive: 14.6 µM [inhibitor, partial curve]. For `O=C(C(=O)N1CCC2(CC1)OCCO2)c1c[nH]c2ccccc12`, the Potency was inconclusive: 29.1 µM [inhibitor, single point]. With `CCCCC/C=C\C/C=C\C/C=C\C/C=C\CCCC(=O)O` the Potency was active: 29.9 µM and the activity change, negative = growth inhibition was inactive: 8.76% [at 4.12 µM]. With `O=[N+]([O-])c1ccc(NCc2ccc(Cl)cc2)c2ccncc12` the Potency was active: 23.1 µM. With `ClCCN1CCSCC1` the Potency was inconclusive: 20.6 µM [inhibitor, single point]. With `O=C1NC(=O)N(c2cccc(Br)c2)C(=O)/C1=C/c1ccsc1` the Potency was inconclusive: 16.4 µM [inhibitor, single point]. In the case of `CC[C@H]1c2ccccc2[C@@H]2CC[C@H]1N2c1ccccc1`, the Potency is reported as “inactive”. In the case of `N#CC(C#N)=NNc1ccc([N+](=O)[O-])cc1`, the Potency is reported as active: 20.6 µM. For `COC(=O)C1=C(c2ccc(OC)c(OC)c2)C[C@@H]2CC[C@H]1N2C(=O)N1CCCCC1`, the Potency was active: 8.2 µM. With `CCP(=S)(CC)c1ccc(N(C)C)cc1` the Potency was inconclusive: 18.4 µM [inhibitor, single point]. For `O=C1NC(=O)N(CCc2ccc(F)cc2)C(=O)/C1=C/C=C/c1ccccc1`, the Potency was active: 3.26 µM. For `CCOc1ccc(-c2c(C)n(-c3ccc(OCC)cc3)c3[n+]2CCCCC3)cc1`, the Potency was active: 0.206 µM. With `CCC(=NCCC(c1ccccc1)c1ccccc1)c1c(O)[nH]c(=O)[nH]c1=O` the Potency was inconclusive: 29.1 µM [inhibitor, single point]. In the case of `COc1cccc(NC(=O)CSC2=Nc3ccccc3C3=NC(CCC(=O)NCCc4ccccc4)C(=O)N23)c1` (centres undefined), the Potency is reported as active: 20.6 µM. In the case of `COc1ccc(/C=C/c2cc(O)cc(O)c2)cc1`, the Potency is reported as active: 2.59 µM. In the case of `c1ccc(N2CC[C@@]3(CCCNC3)C2)cc1`, the Potency is reported as inconclusive: 18.4 µM [inhibitor, single point]. For `COc1ccc(OC)c(NC(=O)Cn2cc(C(=O)c3ccccc3F)c3ccccc32)c1`, the Potency was inconclusive: 23.1 µM [inhibitor, single point]. For `CN1CCN(C(=O)COc2ccc(C(C)(C)C)cc2Br)CC1`, the Potency was inconclusive: 16.4 µM [inhibitor, single point]. In the case of `Brc1ccc2c(c1)C(OC1CN3CCC1CC3)c1ccccc1CS2` (centres undefined), the Potency is reported as active: 13 µM. In the case of `Cc1cc2c(C(C)C)c(O)c(O)c(C=O)c2c(O)c1-c1c(C)cc2c(C(C)C)c(O)c(O)c(C=O)c2c1O`, the Potency is reported as active: 794 nM and active: 6.68 µM and active: 5.8 µM. With `Cc1cccc(C2=NN(c3ccc(Br)cc3)[C@@H](C(=O)N3CCOC3=O)[C@@H]2c2ccc([N+](=O)[O-])cc2)c1` the Potency was inconclusive: 18.4 µM [inhibitor, single point]. For `CCN(CC)S(=O)(=O)c1ccc(C(=O)NC(=S)N2CCN(c3ccccc3O)CC2)cc1`, the Potency was inconclusive: 29.1 µM [inhibitor, single point]. In the case of `CC(=O)O[C@H]1CC[C@@]2(C)C(=CC[C@H]3[C@@H]4CC[C@H](C(C)=O)[C@@]4(C)CC[C@@H]32)C1`, the Potency is reported as “inactive and inconclusive: 29.1 µM [inhibitor, single point]”. With `Cc1ccc(C(=O)Nc2ccc(S(=O)(=O)N3CCC(c4nc5ccccc5s4)CC3)cc2)cc1` the Potency was inconclusive: 16.4 µM [inhibitor, single point]. With `CC1CNCCN1c1ccc(Cl)cc1` (centres undefined) the Potency was “inactive”. In the case of `CCC(C)N1C(=O)/C(=C\c2cc3c4c(c2)CCCN4CCC3)C(=O)NC1=S` (centres undefined), the Potency is reported as inconclusive: 13 µM [inhibitor, partial curve, poor fit].
